Test results: PubChem BioAssay (NCI)
Values joined by “and” are separate entries in the source; they are usually repeats but may differ in a detail not shown here. Equal values may be shown once.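 Assay format: 96-well plates, 48-hour exposure. GI50 = concentration required for 50% inhibition of growth. TGI is the concentration that stops growth completely.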

tested on: NCI-H322M lung; test: NCI-60 cell line screen, 48 h

| Structure (SMILES) | TGI | GI50 |
| --- | --- | --- |
| Nc1ccc(C(=O)N/C(=C\c2cccc([N+](=O)[O-])c2)c2nc3ccc(Cl)cc3[nH]2)cc1 | > 100 µM | – |
| CC(=O)O[C@H]1CN(S(=O)(=O)c2ccc(C)cc2)C[C@@H]1C1CCCCC1 | > 100 µM | – |
| Cc1cc(C)nc(NS(=O)(=O)c2ccc(NC(=O)c3cccn4c(=O)c5ccccc5nc34)cc2)n1 | > 100 µM | – |
| CCCCc1c2c(nc3c1CCc1cc4cc5c(nc4nc1-3)-c1nc3c(c(CCCC)c1CC5)CCC/C3=C\c1ccccc1)/C(=C/c1ccccc1)CCC2 | > 100 µM | – |
| O=S(=O)(O)c1cc(O)c2c(O)c(N=Nc3cccc4ccccc34)c(S(=O)(=O)O)cc2c1 | > 100 µM | – |
| CC1(C)CCCCCCCCCC(C)(CCCCCCCCCCCCO)C1=O (centres undefined) | 33.1 µM | – |
| COP(=O)(OC)C(NC=O)P(=O)(OC)OC | > 100 µM | – |
| Cc1oc2c(c1C(=O)N1CC[C@@H](N)C1)C(=O)c1c(c(O)c3ccccc3c1O)C2=O | 5.27 µM | 1.86 µM |
| CC1=C[C@@H](C)C[C@]2(C)CC[C@H](O2)[C@]23CC[C@](C)(C[C@H](O2)[C@@H]2O[C@@](C)(CC2=O)[C@@H](O)[C@H]2CC[C@@]4(CCC[C@@H](O4)[C@H](C)C(=O)O[C@H]4C[C@H]([C@]5(O)OCC[C@H](C)[C@@H]5O)O[C@H]4C=C1)O2)O3 | > 10 µM | – |
| O=C1CCC(N2C(=O)c3cccc(NCCCC4CCN(CCNC(=O)c5cc6c(o5)C(=O)c5ccccc5C6=O)CC4)c3C2=O)C(=O)N1 (centres undefined) | 0.868 µM | 0.439 µM |
| O=c1[nH]cnc2sc(=S)c3c(c12)CCC3 | > 100 µM | – |
| CC(C)C(C/C=C1/CC(CO)(COC(=O)C2CCCCC2)OC1=O)C(C)C (centres undefined) | 35.4 µM | – |
| Nc1ncccc1-c1nc2ccc(-c3ccccc3)nc2n1-c1ccc(C2(N)CCC2)cc1 | 11.2 µM | 1.87 µM |
| Cc1ccc(OCC2OC(n3cnc4c(Cl)ncnc43)CC2Oc2ccc(C)cc2)cc1 (centres undefined) | 6.4 µM and 33.3 µM | 2.56 µM and 16 µM |
| Cn1nnc2c(C(N)=O)ncn2c1=O | > 100 µM | – |
| CCCCc1ccc(-n2sc3ncccc3c2=O)cc1 | 96.2 µM | – |
| CC(C)(C)OC(=O)NCC(=O)NC1C/C(=N\O)c2sccc21 (centres undefined) | > 100 µM | – |
| CCC[CH2][Sn]([CH2]CCC)([O]C(=O)/C=C/c1ccccc1F)[O]C(=O)/C=C/c1ccccc1F | 4.45 µM | 1.98 µM |
| O=C(CCc1nc(=S)[nH][nH]1)Nc1cccc(C(F)(F)F)c1 | > 100 µM | – |
| CCn1c2ccc(O)c(C(=O)OC)c2c2cc3ccccc3c(O)c21 | 42.7 µM | – |
| O=C(N/C(=C\c1cc(Cl)ccc1Cl)c1nc2ccc(Cl)cc2[nH]1)c1ccccc1 | 53.8 µM | – |
| CCN(CC)C(=S)SSC(=S)N(CC)CC | 212 µM | 37.3 µM and 60 µM |
| CSc1ncc2c(n1)-c1ccccc1OC2NC(C)(C)C (centres undefined) | > 100 µM | – |
| N=C(N)SCCCN | > 74.9 µM | – |
| CC1C2CC(C/C2=N/O)C1(C)C (centres undefined) | > 100 µM | – |

| Structure (SMILES) | TGI | GI50 |
| --- | --- | --- |
| O=C(Nc1ccccc1Cl)c1cccc(NC2=C(Cl)C(=O)N(Cc3ccccc3)C2=O)c1 | > 100 µM | 16.9 µM |
| O=C(O)COc1ccc(C(=O)/C(SS/C(C(=O)c2ccc(OCC(=O)O)c(Cl)c2Cl)=C2\C=C(c3ccc(Br)cc3)SS2)=C2/C=C(c3ccc(Br)cc3)SS2)c(Cl)c1Cl | > 100 µM | – |
| O=C(N/N=C/c1ccc(Cl)cc1)c1cc(I)cc(I)c1O | > 100 µM | – |
| CCOC(=O)/C(C#N)=C(/NNc1ccccc1)c1ccncc1C(=O)O | > 100 µM | – |
| CCC(=O)NC(OCC1(CC)COC1)(C(F)(F)F)C(F)(F)F | > 100 µM | – |
| CC(C)(C)c1cc(C(=O)/C=C/c2ccn[nH]2)cc(C(C)(C)C)c1O | 31.1 µM | – |
| C/C(=C\Cc1cc(O)ccc1O)CCc1c(C)c(O)c(O)c(C=O)c1C | > 100 µM | – |
| O=c1c(O)cccn1CCCN(CCCn1cccc(O)c1=O)CCn1cccc(O)c1=O | > 100 µM | 2.29 µM |
| [N-]=[N+]=NC[C@H]1OCO[C@H](CN=[N+]=[N-])[C@H]2OCCOCCOc3ccccc3OCCOCCO[C@@H]21 | > 100 µM | – |
| N=C(N)c1ccc(-c2ccc(-c3ccc(Cl)cc3)s2)nc1 | 2.64 µM | 1.36 µM |
| COc1cc(/C=C\c2ccncc2)cc(OC)c1OC | > 100 µM | – |
| COC/N=C(/N)NC#N | > 100 µM | – |
| Cc1occ2c1C(=O)CC1C2[C@@H](O)CC2C(C)(C)CCC[C@]12C (some centres undefined) | > 100 µM | – |
| COc1cc(/C=C/[N+](=O)[O-])cc(OC)c1OC | 26.6 µM | 12.6 µM |
| N#CC1(c2ccccc2)CCN(C2(c3ccccc3)CCCCC2)CC1 | > 100 µM | – |
| Cn1c2c(c3ccccc31)CCN1C(=O)C3SC21C1C(=O)N(c2ccccc2)C(=O)C31 (centres undefined) | > 100 µM | – |
| NC(=O)C12CC3CC(CC(Br)(C3)C1)C2 | > 100 µM | – |
| CCOP(=O)(OCC)C1(O)CC(n2cc(C)c(=O)[nH]c2=O)OC1CO (centres undefined) | > 100 µM | – |
| C/C=C/[C@H]1O[C@@](O)([C@@H](C)[C@H](O)[C@H](C)[C@H]2OC(=O)/C(OC)=C/C(C)=C/[C@@H](C)[C@@H](O)[C@@H](CC)[C@@H](O)[C@H](C)C/C(C)=C/C=C/[C@@H]2OC)C[C@H](OC2CC(O)C(OC(N)=O)C(C)O2)[C@@H]1C (some centres undefined) | 21.5 µM | – |
| O=c1c(-c2ccccc2)coc2cc(OC/C(=N/O)c3ccc(F)cc3)ccc12 | 41 µM | 18.2 µM |
| N/C(=N\c1nc2ccccc2s1)NC(=NC1CCCCC1)NC1CCCCC1 | 3.02 µM | 1.57 µM |
| Cc1c2ccncc2c(C)c2c1c1cc(CO)ccc1n2C | 3.82 µM | 0.551 µM |
| Oc1ccc(Cl)cc1C1=N/C(=N\C/N=C2\N=C(c3cc(Cl)ccc3O)CC(c3ccccc3)N2)NC(c2ccccc2)C1 (centres undefined) | > 100 µM | – |
| O=c1[nH]c2cc3cccnc3c(Cl)c2nc1CBr | 51.5 µM | – |
| O/N=C1/C2CC3CC1(c1ccccc1)CC(/C3=N/O)/C2=N\O (centres undefined) | > 100 µM | – |

| Structure (SMILES) | TGI | GI50 |
| --- | --- | --- |
| COc1cc([C@H]2Oc3c(OC)cc(CCCO)cc3[C@@H]2CO)ccc1O | > 100 µM | – |
| C=CCC1(CC)C(=O)NC(=O)NC1=O | > 100 µM | – |
| COc1cc2c(cc1-c1coc3cc(OCC=C(C)C)ccc3c1=O)OCO2 | > 100 µM | – |
| Cc1cccc2c(Nc3ccc(NS(C)(=O)=O)cc3)c3ccc([N+](=O)[O-])cc3nc12 | 11.4 µM | 2.85 µM |
| CNC(=S)N/N=C(\C)c1nc2ncccc2[nH]1 | > 100 µM | – |
| Cc1c(C#N)c2nnn(-c3ccccc3)c(=O)n2c1-c1ccccc1 | > 100 µM | – |
| Brc1cccc(-c2cc(-c3ccc4nccnc4c3)[nH]n2)c1 | > 250 µM | 1.42 µM |
| COc1ccc2c(c1)C(=O)c1c-2n(CCCN)c(=O)c2cc([N+](=O)[O-])ccc12 | 6.18 µM | 1.88 µM |
| Clc1nc(Nc2nc3ccccc3[nH]2)nc(Cl)c1Cc1ccccc1 | > 100 µM | – |
| COc1ccc(/C(=N/Nc2nc3ccccc3[nH]2)C(=O)O)cc1 | > 100 µM | – |
| CC1=C(Cl)C[C@@H](/C(C)=C\Cl)O[C@@]1(O)C(Br)Br | > 100 µM | – |
| CSc1nc(C#N)c(N)n1C | > 100 µM | – |
| CN(C)C(=O)C(F)(F)C(c1ccc(Br)cc1)C1C(=O)N(C)C(=O)N(C)C1=O (centres undefined) | > 100 µM | – |
| CC(=O)Nc1ccc(C(=O)NN2C(=O)C(Cl)C2c2ccc(O)cc2)cc1 (centres undefined) | > 100 µM | – |
| Nc1n[nH]c(N)c1N=Nc1ccc(O)cc1 | 88.7 µM | 25 µM |
| CC1(C)CC2=C(Sc3ccccc3N2)C(=O)C1C(=O)C(=O)Nc1cc(Cl)ccc1Cl (centres undefined) | > 100 µM | – |
| CC(=O)NNc1nc(C)c(C(=O)/C=C/c2ccc(/C=C/C(=O)c3sc(NNC(C)=O)nc3C)cc2)s1 | > 100 µM | – |
| COc1ccc2c(c1OC)C(=O)O[C@@H]2[C@H]1c2cc3c(cc2CCN1C)OCO3 | > 100 µM | – |
| COC1=CC(=O)c2c(O)c3c(c(O)c2C1=O)C[C@](C)(O)C[C@@H]3O | 9.42 µM | – |
| Nc1cc2cccc[n+]2c2cccc(Cl)c12 | – | 27.3 µM |
| Cc1ccc(Sc2oc(-c3ccc(C)cc3)nc2[P+](c2ccccc2)(c2ccccc2)c2ccccc2)cc1 | 1.51 µM | 0.385 µM |
| Cc1ccc(SC[C@@]2(C(F)F)NC(=O)NC2=O)cc1 | > 100 µM | – |
| CCCCCn1c(=O)c2c(=O)[nH][nH]c2c2ccccc21 | > 100 µM | – |
| COc1cc2c(c(OC)c1OC)-c1c(cc3c(c1OC)OCO3)CC(C)C(C)(O)C2OC(=O)c1ccccc1 (centres undefined) | > 100 µM | – |
| COC(=O)/C(=C\c1ccco1)P(=O)(OC)OC | > 100 µM | – |

| Structure (SMILES) | TGI | GI50 |
| --- | --- | --- |
| Nc1ccc(C(=O)NN2C(=O)C(Cl)C2c2cccc(O)c2)cc1 (centres undefined) | 29.7 µM | – |
| CCSc1nc(N)c(C#N)c(-c2ccco2)c1C#N | > 100 µM | 74.3 µM |
| Nc1ncnc2c1nnn2C1C=C(CO)C(O)C1O (centres undefined) | > 100 µM | – |
| CN1Cc2c(nc(-c3ccc(Br)cc3)c[n+]2[O-])N(C)C1 | > 100 µM | – |
| CCOC(=O)C(NC(=O)CC)(Nc1ccc(S(=O)(=O)Nc2nc(C)cc(C)n2)cc1)C(F)(F)F (centres undefined) | > 100 µM | – |
| CC(=O)OC(C)C(OC(C)=O)C(OC(C)=O)C(/C=C/C1CC=CC(=O)O1)OC(C)=O (centres undefined) | > 100 µM | 53.4 µM |
| CC[C@H]1C=CCC[C@@]2(C[C@@H]3CC[C@@H]4[C@H](C(=O)OCCCCCCCCCCCCCCCC(=O)N(CCCN)CCCCN)[C@]5(CCC[C@@H](C)O5)NC(=[N+]34)N2)O1 | 1.82 µM | – |
| CN1CCc2c1nc(-c1cccnc1)c1c2N(C)CC1 | > 100 µM | – |
| CCN(CC)CCCC(C)Nc1c(Sc2cnc3cc(Cl)ccc3c2NC(C)CCCN(CC)CC)cnc2cc(Cl)ccc12 (centres undefined) | 6.17 µM | – |
| COc1cc(C2CC(=O)Nc3c2cc(Br)c2ccccc32)cc(Br)c1OC (centres undefined) | > 100 µM | 3.56 µM |
| O=C(O)c1cc(Cl)cc2c1NC1(N2)C(=O)Nc2ccccc21 (centres undefined) | > 100 µM | – |
| O=S1(=O)C(c2ccccc2)=C(O)c2ccccc21 | > 100 µM | – |
| O=c1cccc(C#CC#CCCCO)o1 | 10 µM | 1.58 µM |
| COc1ccc2c(c1)/C(=C\c1c[nH]c3ccc(OC)cc13)C(=O)N2 | 15.7 µM | 3.44 µM |
| C=CC(C)(C)c1cc([C@@H]2COc3cc(O)ccc3C2=O)c(O)c(O)c1OC | > 100 µM | – |
| Cc1cc(C)c2c(=N)c3ccccc3n(CCCCCCO)c2n1 | 28.4 µM | – |
| CCN(CC)CCCC(C)Nc1c(-c2ccccc2)cnc2cc(Cl)ccc12 (centres undefined) | 39.3 µM | 11.3 µM |
| C=CCCCOC1[C@H](OCc2ccccc2)C(OCc2ccccc2)C(OC)O[C@@H]1CNC(=O)c1cccc(I)c1 (some centres undefined) | > 100 µM | 7.43 µM |
| C[C@@H]1COCCN1c1cc(-c2ccnn2C)c2ccnc(-c3ccn[nH]3)c2n1 | > 26.3 µM | 0.038 µM and 0.0525 µM |
| CN(/N=N/c1nc[nH]c1C(N)=O)C1CCCCC1 | > 100 µM | – |
| CC1=NN(C(=O)c2ccc(Cl)cc2)C(=O)/C1=C/c1ccc(Cl)cc1 | > 100 µM | – |
| COc1ccc(-c2onc(-c3c(C)cc(C)cc3C)c2C2=NCCN2)cc1 | > 100 µM | – |
| Cc1ccc(NC(=O)CC2SC(N)=NC2=O)cc1C (centres undefined) | > 100 µM | – |
